Experimental findings from the BET-seq Pho4 binding data (Le et al. 2018) are described below.

The other results are listed elsewhere or left out. These are noisy estimates, calculated here from bound and input reads.

The assay concerns the target T1, Pho4 (S. cerevisiae) (UniProt P07270).
T1 sequence: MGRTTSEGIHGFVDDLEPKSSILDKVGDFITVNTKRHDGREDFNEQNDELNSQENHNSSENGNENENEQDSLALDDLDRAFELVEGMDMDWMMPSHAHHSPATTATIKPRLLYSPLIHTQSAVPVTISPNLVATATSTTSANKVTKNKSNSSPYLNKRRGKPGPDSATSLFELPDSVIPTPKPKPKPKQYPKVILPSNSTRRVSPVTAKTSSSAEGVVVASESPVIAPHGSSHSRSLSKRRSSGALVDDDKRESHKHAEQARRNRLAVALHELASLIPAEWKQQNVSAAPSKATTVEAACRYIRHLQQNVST
Description: relative binding free energy (BET-seq); higher = weaker binding. The following applies: reference: library average.
As for TGGATCACGTGTCTGG, the “relative binding free energy” value was determined as 0.12 kcal/mol.

As to TAGTGCACGTGGTCTT, the “relative binding free energy” value is -0.27 kcal/mol.

In the case of TGCTTCACGTGTAAAT, the “relative binding free energy” value worked out at 0.33 kcal/mol.

For the sequence TGGCTCACGTGTGAAG, the “relative binding free energy” value stood at 0.35 kcal/mol.

For the sequence TAGGTCACGTGATTCT, the “relative binding free energy” value was 0.26 kcal/mol.

In the case of AGCAGCACGTGTGTTG, the “relative binding free energy” value was -0.07 kcal/mol.

On to TAATGCACGTGTGAAA, for which the “relative binding free energy” value is 0.16 kcal/mol.

With GTGGACACGTGGGTTA, the “relative binding free energy” value is -0.01 kcal/mol.

For the sequence TGTAGCACGTGGTGAC, the “relative binding free energy” value was -0.19 kcal/mol.

Regarding AGAAGCACGTGTGCGG, the “relative binding free energy” value is -0.13 kcal/mol.

Turning to GCTGACACGTGGGTTG, the “relative binding free energy” value is 0.03 kcal/mol.

Take TTCATCACGTGTTAAA: the “relative binding free energy” value is 0.31 kcal/mol.

Turning to GTTTTCACGTGTATGG, the “relative binding free energy” value was 0.24 kcal/mol.

With GCCTTCACGTGGCGGT, the “relative binding free energy” value is 0.43 kcal/mol.

GGGAGCACGTGCATGT: the “relative binding free energy” value is -0.11 kcal/mol.

Regarding AATTCCACGTGGTTTG, the “relative binding free energy” value was 0.1 kcal/mol.

TTGAACACGTGTGTTG: the “relative binding free energy” value worked out at 0.05 kcal/mol.

As for GTGTGCACGTGTTAAC, the “relative binding free energy” value came out at 0.02 kcal/mol.

Turning to TGGCACACGTGTATTT, the “relative binding free energy” value was 0.03 kcal/mol.

For GACGTCACGTGGTGGA, the “relative binding free energy” value amounted to 0.12 kcal/mol.

Take TGAATCACGTGACGGG: the “relative binding free energy” value worked out at 0.27 kcal/mol.

GTGTGCACGTGCGTAG: the “relative binding free energy” value was -0.1 kcal/mol.

As to AGGGGCACGTGTTAAC, the “relative binding free energy” value was -0.04 kcal/mol.

On to TGTTCCACGTGCAGGG, for which the “relative binding free energy” value turned out to be 0.07 kcal/mol.

Regarding AGGATCACGTGCTGGT, the “relative binding free energy” value is -0.03 kcal/mol.

TGTATCACGTGAGGGG: the “relative binding free energy” value stood at 0.29 kcal/mol.

For GTGGACACGTGCAGGA, the “relative binding free energy” value was found to be 0.1 kcal/mol.

On to AACAGCACGTGTTGTG, for which the “relative binding free energy” value was -0.09 kcal/mol.

On to TATTCCACGTGAGGTG, for which the “relative binding free energy” value amounted to 0.23 kcal/mol.

For GTATGCACGTGGGCTT, the “relative binding free energy” value is -0.15 kcal/mol.

As for GGGTGCACGTGTAGAC, the “relative binding free energy” value was found to be 0.02 kcal/mol.

For the sequence TTATTCACGTGGGTGG, the “relative binding free energy” value came out at 0.09 kcal/mol.

Take TTATGCACGTGGAGTC: the “relative binding free energy” value is -0.01 kcal/mol.

As for TAAGTCACGTGGAGCT, the “relative binding free energy” value amounted to 0.19 kcal/mol.

On to CTCTTCACGTGGGTTG, for which the “relative binding free energy” value was 0.16 kcal/mol.

Regarding TTAATCACGTGTTCGA, the “relative binding free energy” value worked out at 0.18 kcal/mol.

As to TTGTACACGTGGCGGT, the “relative binding free energy” value was determined as 0.06 kcal/mol.

For TGCCACACGTGGTGGT, the “relative binding free energy” value was -0.02 kcal/mol.

As to GATTACACGTGGAGTA, the “relative binding free energy” value is 0.25 kcal/mol.

TTAGTCACGTGTACGT: the “relative binding free energy” value was found to be 0.12 kcal/mol.

In the case of TTATGCACGTGGGCAT, the “relative binding free energy” value was -0.15 kcal/mol.

Regarding GGGATCACGTGTAAGT, the “relative binding free energy” value turned out to be 0.19 kcal/mol.

In the case of TGGGGCACGTGGGTCG, the “relative binding free energy” value was -0.1 kcal/mol.

Take CTGGTCACGTGTTGAT: the “relative binding free energy” value worked out at 0.15 kcal/mol.

Consider TACTGCACGTGTGTGT, for which the “relative binding free energy” value was -0.09 kcal/mol.

For the sequence CGAGGCACGTGAGGGA, the “relative binding free energy” value came out at 0.17 kcal/mol.

As to AAGGTCACGTGTAATG, the “relative binding free energy” value stood at 0.18 kcal/mol.

On to TATGTCACGTGGAAGC, for which the “relative binding free energy” value turned out to be 0.24 kcal/mol.

ATAAGCACGTGGCGTT: the “relative binding free energy” value is -0.15 kcal/mol.

Turning to CTTGACACGTGTGGCG, the “relative binding free energy” value was 0.04 kcal/mol.

For the sequence AACAGCACGTGGGGGG, the “relative binding free energy” value was -0.2 kcal/mol.

As for GACGTCACGTGGGGGC, the “relative binding free energy” value worked out at 0.02 kcal/mol.

Turning to TGAGGCACGTGTCATG, the “relative binding free energy” value is -0.16 kcal/mol.

Consider GCGATCACGTGGGTGA, for which the “relative binding free energy” value is 0.02 kcal/mol.

With TATATCACGTGGGATA, the “relative binding free energy” value was 0.07 kcal/mol.

As for ATGAGCACGTGGCTGT, the “relative binding free energy” value is -0.14 kcal/mol.

With GATGGCACGTGTGGAG, the “relative binding free energy” value is -0.09 kcal/mol.

AAAATCACGTGGGAGT: the “relative binding free energy” value was 0.2 kcal/mol.

As to TTAGACACGTGTAGGG, the “relative binding free energy” value was 0.14 kcal/mol.

Take CATATCACGTGGTATT: the “relative binding free energy” value was determined as 0.02 kcal/mol.

Consider AATTACACGTGGGCGG, for which the “relative binding free energy” value is -0.11 kcal/mol.

In the case of ATGATCACGTGGGTCT, the “relative binding free energy” value is -0.09 kcal/mol.

With GCTTTCACGTGTTATA, the “relative binding free energy” value stood at 0.39 kcal/mol.

For the sequence GTCGTCACGTGAGATG, the “relative binding free energy” value came to 0.28 kcal/mol.

TTGATCACGTGTAGCT: the “relative binding free energy” value stood at 0.09 kcal/mol.

As for TGTGACACGTGTATGT, the “relative binding free energy” value is -0.02 kcal/mol.

Take TGCGTCACGTGGCCGT: the “relative binding free energy” value is -0.04 kcal/mol.

As for CTGTTCACGTGGGGCG, the “relative binding free energy” value is 0.09 kcal/mol.

On to ACTGTCACGTGAGGGG, for which the “relative binding free energy” value amounted to 0.29 kcal/mol.

AGGGGCACGTGCATTG: the “relative binding free energy” value is -0.18 kcal/mol.

For the sequence GTCATCACGTGATGGG, the “relative binding free energy” value came to 0.27 kcal/mol.

As to AGGAACACGTGGTATT, the “relative binding free energy” value is -0.01 kcal/mol.

With ACATTCACGTGTGTTT, the “relative binding free energy” value was determined as 0.22 kcal/mol.

With TGTGCCACGTGGCTTT, the “relative binding free energy” value was -0.09 kcal/mol.

For the sequence TGTCACACGTGAGGAG, the “relative binding free energy” value stood at 0.2 kcal/mol.

With ACGAGCACGTGGTTGG, the “relative binding free energy” value was -0.14 kcal/mol.

As for TAATTCACGTGTTCGT, the “relative binding free energy” value was 0.26 kcal/mol.

As for GTTGTCACGTGCGTCT, the “relative binding free energy” value amounted to 0.06 kcal/mol.

For the sequence GTTCTCACGTGTTCTT, the “relative binding free energy” value was found to be 0.3 kcal/mol.

As to GTTGACACGTGGAGTA, the “relative binding free energy” value was determined as 0.03 kcal/mol.

On to GGTGTCACGTGTCGTA, for which the “relative binding free energy” value was 0.14 kcal/mol.

Consider GGTATCACGTGGCAGT, for which the “relative binding free energy” value was found to be 0.05 kcal/mol.

For AGGTGCACGTGGCCGT, the “relative binding free energy” value was -0.18 kcal/mol.

As for CGGTACACGTGGGTAG, the “relative binding free energy” value was -0.06 kcal/mol.

Turning to TGGTGCACGTGGTAAC, the “relative binding free energy” value was -0.05 kcal/mol.

For TAATACACGTGAAAGG, the “relative binding free energy” value was 0.35 kcal/mol.

For the sequence GGGGACACGTGGTAAG, the “relative binding free energy” value was found to be 0.09 kcal/mol.

Take GTATGCACGTGGAGCG: the “relative binding free energy” value came to 0 kcal/mol.

Regarding TGAGTCACGTGCTGTA, the “relative binding free energy” value is 0.07 kcal/mol.

On to CGTGTCACGTGGTACT, for which the “relative binding free energy” value came out at 0 kcal/mol.

As for CTACTCACGTGGTGGT, the “relative binding free energy” value amounted to 0.14 kcal/mol.

For AGAGGCACGTGGTACT, the “relative binding free energy” value was -0.23 kcal/mol.

On to TTGGGCACGTGGAGAT, for which the “relative binding free energy” value was -0.07 kcal/mol.

Take ATGGCCACGTGGGGAT: the “relative binding free energy” value was -0.15 kcal/mol.

As to GACTGCACGTGAAGGG, the “relative binding free energy” value turned out to be 0.25 kcal/mol.

For TGTTGCACGTGTTTTA, the “relative binding free energy” value is -0.03 kcal/mol.

Take GGGGACACGTGTTTTG: the “relative binding free energy” value worked out at 0.03 kcal/mol.

For AATTTCACGTGTTTAT, the “relative binding free energy” value stood at 0.33 kcal/mol.

Regarding TTATTCACGTGCTGTT, the “relative binding free energy” value was 0.11 kcal/mol.

Regarding TGAGTCACGTGGCCGG, the “relative binding free energy” value was -0.06 kcal/mol.

Consider GGCGTCACGTGTTTGC, for which the “relative binding free energy” value was 0.23 kcal/mol.

Regarding TTGAGCACGTGTGCGA, the “relative binding free energy” value is -0.08 kcal/mol.

Regarding TCTGACACGTGGTGGT, the “relative binding free energy” value worked out at 0 kcal/mol.

Regarding AGATGCACGTGTAGAT, the “relative binding free energy” value came to 0.18 kcal/mol.

For the sequence AATGTCACGTGCAGTT, the “relative binding free energy” value was 0.18 kcal/mol.

With GGTGACACGTGTACAG, the “relative binding free energy” value was 0.05 kcal/mol.

On to GTTCGCACGTGTAATT, for which the “relative binding free energy” value worked out at 0.24 kcal/mol.

For GCGTGCACGTGTGTTA, the “relative binding free energy” value was -0.04 kcal/mol.

CAATGCACGTGGTTTG: the “relative binding free energy” value was -0.08 kcal/mol.

For the sequence AGTCGCACGTGGCGTG, the “relative binding free energy” value was -0.21 kcal/mol.

Take TTGGGCACGTGGTCAT: the “relative binding free energy” value was -0.17 kcal/mol.

With GCGGGCACGTGCTGGT, the “relative binding free energy” value is -0.2 kcal/mol.

With AGGGTCACGTGCGTAA, the “relative binding free energy” value was found to be 0.09 kcal/mol.

Regarding GATTTCACGTGTAGCG, the “relative binding free energy” value is 0.34 kcal/mol.

With TGAGACACGTGTGTAG, the “relative binding free energy” value stood at 0.05 kcal/mol.
